Measured values: US20260015418A1 (ABL BIO, published 2026)

Experiments:
[1] = target: T1, human ROR1 protein (ROR1-His; Sino Biological, Catalog #13968-H08H) (human, UniProt Q01973 part only); assay: SACE ELISA on human ROR1-His
T1 construct: extracellular domain; Bought protein; also called human recombinant ROR1 protein
Procedure: (§1) As a control group, the BA6xB5 bispecific antibody which comprised the parental clone anti-ROR1 antibody BA6 without removed PTM hotspot, and for the experimental group, the BA6M11xB5 bispecific antibody was utilized, and after storing both samples at 4° C. (normal conditions) and 40° C. (stress conditions) for two weeks, the antibody-antigen binding affinity to human ROR1 and human B7H3 recombinant proteins was evaluated using an ELISA-based solution binding assay. Specifically, 96-well microtiter plates (Nunc-Immuno Plates, NUNC) were coated for 16 hours at 4° C. with 1 μg/ml concentration of human ROR1 protein (ROR1-His; Sino Biological, Catalog #13968-H08H) and human B7-H3 protein (B7H3-His; Sino Biological, Catalog #11188-H08H) in PBS solution, and then the plates were then blocked with 1% (v/v) BSA (bovine serum albumin) at 37° C. for 2 hours to prevent non-specific binding.
(§2) Afterwards, the BA6xB5 and BA6M11xB5 bispecific antibodies stored for two weeks were added to the microtiter plates at the concentrations listed in FIGS. 7a-7d, and their binding ability was analyzed by ELISA as follows. […] The enzymatic reaction was stopped with 0.5 mol/L sulfuric acid, and the absorbance was measured at 450 nm and 650 nm using a microplate reader (Molecular Devices).

[2] = target: T2, human B7-H3 protein (B7H3-His; Sino Biological, Catalog #11188-H08H) (human, UniProt Q5ZPR3 29-461); assay: SACE ELISA on human B7-H3-His
T2 construct: Bought protein
T2 sequence (looked up): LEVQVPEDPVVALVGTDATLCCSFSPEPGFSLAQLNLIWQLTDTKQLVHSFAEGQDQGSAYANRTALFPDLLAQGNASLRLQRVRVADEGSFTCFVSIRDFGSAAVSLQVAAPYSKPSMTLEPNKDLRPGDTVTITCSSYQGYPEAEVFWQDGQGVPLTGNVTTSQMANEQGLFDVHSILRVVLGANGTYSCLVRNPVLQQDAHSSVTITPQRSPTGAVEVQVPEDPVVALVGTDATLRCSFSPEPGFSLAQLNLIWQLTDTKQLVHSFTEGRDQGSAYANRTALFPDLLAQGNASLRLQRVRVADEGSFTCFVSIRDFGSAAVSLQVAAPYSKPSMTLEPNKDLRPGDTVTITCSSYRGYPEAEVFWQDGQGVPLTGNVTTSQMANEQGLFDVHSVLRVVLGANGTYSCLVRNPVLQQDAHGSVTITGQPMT
Procedure: as §1, §2

[3] = target: T1, human ROR1 protein (ROR1-His; Sino …); assay: SACE ELISA on human ROR1-His; antibody stored 2 weeks at 4°C
Procedure: as §1, §2

[4] = target: T2, human B7-H3 protein (B7H3-His; Sino …); assay: SACE ELISA on human B7-H3-His; antibody stored 2 weeks at 4°C
Procedure: as §1, §2

[5] = target: T1, human ROR1 protein (ROR1-His; Sino …); assay: SACE ELISA on human ROR1-His; antibody stored 2 weeks at 40°C
Procedure: as §1, §2

[6] = target: T2, human B7-H3 protein (B7H3-His; Sino …); assay: SACE ELISA on human B7-H3-His; antibody stored 2 weeks at 40°C
Procedure: as §1, §2

[7] = target: T1, human ROR1 protein (ROR1-His; Sino …); assay: ELISA, plate coated with ROR1-His (1 ug/ml), detection with HRP-conjugated anti-Fc polyclonal antibody, OD at 450 nm
Procedure: The ligand binding affinity of the BA6M11 (V205C)-T-PBD monospecific antibody and BA6xB5 (M11) (V205C)-T-PBD bispecific antibody ADCs to human ROR1 recombinant protein was evaluated using an ELISA-based solution binding assay. Specifically, 96-well microtiter plates (Nunc-Immuno Plates, NUNC) were coated for 16 hours at 4° C. with ROR1 protein (ROR1-His; Sino Biological, Catalog #13968-H08H) at a concentration of 1 μg/ml in PBS solution and blocked with 1% (v/v) BSA (bovine serum albumin) at 37° C. for 2 hours to prevent non-specific binding.
Afterwards, the BA6M11 (V205C)-T-PBD monospecific antibody and BA6xB5 (M11) (V205C)-T-PBD bispecific antibody were added to the microtiter plates at the concentrations listed in FIG. 12, and their binding ability was analyzed by ELISA as follows: After incubating at 37° C. for 2 hours, the plates were washed five times with PBS containing 0.05% (v/v) Tween 20, then HRP-conjugated Fc polyclonal antibody reagent (Pierce, Catalog #31413) diluted at a 1:30,000 ratio in 1% (v/v) BSA was added to the washed microtiter plates, incubated for 1 hour at 37° C. to allow the reaction, and used to detect the bound bispecific antibodies. […] The enzymatic reaction was stopped with 0.5 mol/L sulfuric acid, and the absorbance was measured at 450 nm and 650 nm using a microplate reader (Molecular Devices).

[8] = target: T3, human ROR1 on cells (NCI-N87, CHOK1-hROR1, AGS, CHO-huROR1-huB7-H3) (human, UniProt Q01973 30-937); assay: flow cytometry on CHO-huROR1-huB7-H3 cells, which show both human ROR1 and human B7-H3, so the value belongs to the binding to both targets together; FITC anti-human IgG, MFI over secondary antibody only
T3 construct: whole, on cells; also called cell surface ROR1
From the text: (§3) To evaluate the cell-binding ability of the anti-ROR1/B7-H3 bispecific antibody, cells expressing both ROR1 and B7-H3 were used to compare the cell-binding ability of the bispecific antibody with that of the monospecific antibodies.
(§4) As a cell line for the comparison of cell-binding ability, CHO-huROR1-huB7-H3 cell line (obtained by transfecting the ROR1-CHO recombinant cell line (BPS Bioscience) with the human B7-H3 gene (Origene) and selecting for the desired gene-inserted single cells using G418), which stably transfected the human ROR1 and human B7-H3 gene to artificially overexpress both human ROR1 and human B7-H3 proteins were used, and analysis was performed using a flow cytometer (LSRFortessa X-20, BD Biosciences). Specifically, after dissociating and washing the overexpressing cell line with PBS, the cell number was counted, and the cells were seeded at a density of 2×10⁵ cells per well into a V-bottom 96-well plate (96 Well Plate-RV, Bioneer, 910D09). Antibodies diluted 4-fold starting from 100 nM in 1% BSA solution were added at 100 μL per well to the centrifuged cells and incubated at 4° C. for 1 hour. […] After the reaction, the cells were washed twice with the same buffer, resuspended in 100 μL of PBS, and analyzed using a FACS instrument. A total of 10,000 cells were detected per measurement, and the data was analyzed using FlowJo software. […]

[9] = target: T4, human B7-H3 on CHO-huROR1-huB7-H3 cells (human, UniProt Q5ZPR3 29-534); assay: as above
T4 construct: whole, on cells; also called cell surface B7-H3
T4 sequence (looked up): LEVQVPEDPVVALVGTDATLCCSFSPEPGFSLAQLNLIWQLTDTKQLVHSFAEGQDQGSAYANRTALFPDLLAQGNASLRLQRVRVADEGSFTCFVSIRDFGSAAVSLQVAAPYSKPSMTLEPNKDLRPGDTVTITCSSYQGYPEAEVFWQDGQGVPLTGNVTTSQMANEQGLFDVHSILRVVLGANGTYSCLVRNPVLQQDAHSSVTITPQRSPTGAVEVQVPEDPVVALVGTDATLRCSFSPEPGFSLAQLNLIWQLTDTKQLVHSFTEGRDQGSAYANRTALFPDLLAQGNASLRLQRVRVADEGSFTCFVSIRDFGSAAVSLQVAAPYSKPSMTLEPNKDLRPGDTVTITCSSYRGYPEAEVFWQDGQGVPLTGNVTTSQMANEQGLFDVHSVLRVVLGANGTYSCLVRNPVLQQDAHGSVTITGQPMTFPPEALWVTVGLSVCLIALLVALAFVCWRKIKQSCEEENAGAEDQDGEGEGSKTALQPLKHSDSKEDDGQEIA
From the text: as §3, §4

B1: BA6xB5 bispecific antibody (control with parental BA6 clone) (bispecific antibody)
heavy: EVQLLESGGGLVQPGGSLRLSCAASGFTFSNYDMSWVRQAPGKGLEWVSAIYHSGSSKYYADSVKGRFTISRDNSKNTLYLQMNSLRAEDTAVYYCARGGNGAWDTGFDYWGQGTLVTVSS[human IgG1 constant region not shown]GGGGSGGGGSGGGGSQSVLTQPPSASGTPGQRVTISCSGSSSNIGSNAVSWYQQLPGTAPKLLIYYNSHRPSGVPDRFSGSKSGTSASLAISGLRSEDEADYYCGSWDASLNAYVFGCGTKLTVLGGGGSGGGGSGGGGSGGGGSEVQLLESGGGLVQPGGSLRLSCAASGFTFSDYAMSWVRQAPGKCLEWVSSISSGSGSIYYADSVKGRFTISRDNSKNTLYLQMNSLRAEDTAVYYCAKNLIPLDYWGQGTLVTVSS
light: QSVLTQPPSASGTPGQRVTISCSGSSSNIGSNDVSWYQQLPGTAPKLLIYYDNNRPSGVPDRFSGSKSGTSASLAISGLRSEDEADYYCGAWDDSLSGYVFGGGTKLTVLGQPKAAPSVTLFPPSSEELQANKATLVCLISDFYPGAVTVAWKADSSPVKAGVETTTPSKQSNNKYAASSYLSLTPEQWKSHRSYSCQVTHEGSTVEKTVAPAECS
notes: only the BA6 variable domains are tied to it by the clone name; also called BA6 × B5
- Ratio(EC50), 4°C sample against 40°C sample [1]: 78%
- Ratio(EC50), 4°C sample against 40°C sample [2]: 93%
- EC50 [3]: 0.141 nM
- EC50 [4]: 0.173 nM
- EC50 [5]: 0.18 nM
- EC50 [6]: 0.186 nM

B2: BA6(M11/V205C)xB5-T-PBD bispecific antibody ADC (bispecific antibody)
heavy: B1 heavy with N101S
light: B1 light with D52E, V206C
modifications: chain 2 pos 206 (Kabat V205C): Cys carrying the pyrrolobenzodiazepine (PBD) drug-linker through a thiosuccinimide, written C; DAR 2 (one drug on each light chain)
notes: Antibody-drug conjugate of BA6M11xB5; also called BA6xB5 (M11) (V205C)-T-PBD; BA6(M11/V205C)xB5-PBD (DAR2)
- EC50 (read off the curve) [7]: ~0.2 nM

B3: BA6M11xB5 anti-ROR1/anti-B7-H3 bispecific antibody (bispecific antibody, human IgG1, lambda)
heavy: B1 heavy with N101S
light: B1 light with D52E
notes: also called BA6M11 × B5; BA6M11(WT)xB5
- Ratio(EC50), 4°C sample against 40°C sample [1]: 113%
- Ratio(EC50), 4°C sample against 40°C sample [2]: 122%
- EC50 [3]: 0.152 nM
- EC50 [5]: 0.134 nM
- EC50 [6]: 0.19 nM
- EC50 (read off the curve) [8]: ~5 nM
- EC50 (read off the curve) [9]: ~5 nM

Changes are numbered by the printed parent chain. Names may count otherwise.
